Test [1] has as its target recombinant triply mutated EGFR L858R, T790M, C797S kinase domain (mLTC-EGFR) (Homo sapiens, UniProt P00533, C797S/L858R/T790M). Description: TR-FRET fluorescent probe displacement assay. Type of test: binding.
Test [2] deals with EGFR phosphorylation (Tyr1068) in H1975 C797S cells. Description: HTRF cellular EGFR phosphorylation. It is filed as cell-based. The settings on record: Homo sapiens, NCI-H1975, mean ± SD of 4 experiments, read-out: H1975/C797S pEGFR IC50. The protocol: (§1) Cells were plated at 20,000 cells per well in 96-well plates and placed at 37 °C with 5% CO2. Compounds were reconstituted in DMSO. Once adhered (after 24 h), cells were treated with compounds at a final concentration of 0.1% DMSO in media. Compounds were added to duplicate wells and incubated 37 °C for 3 h with 5% CO2. For A431 cells 0.5 h before the end of incubation; 100 ng/mL of EGF (Thermo Fisher, Cat. No. PHG0311) was added to all compound-treated cells as well as control. Compound and media were removed from the cells, and then 50 μL of HTRF lysis buffer was added (lysis buffer was diluted from 4× stock to 1× in deionized (DI) water, with 1% blocking agent also added). Cells were lysed on a plate shaker (2000 rpm) for 30 min at room temperature. pEGFR expression was assessed using the Human Phospho-EGFR (Tyr1068) cellular detection kit (Revvity, Cat. No. 64EG1PEH). Total EGFR expression was monitored using the Human Total EGFR cellular detection kit (Revvity, Cat. No. 64NG1PEH) as per the manufacturer’s instructions. […] Results were calculated as the ratio of pEGFR/total EGFR and then the percentage of 0 μM control.
(In general: TR-FRET usually uses a lanthanide donor and a delayed reading to cut background.)

In test [3] the target is L858R/T790M-nanoLuc reporter EGFR in HEK293T cells (Homo sapiens, UniProt P00533, L858R/T790M). In words: cell-based.
Test [4] relates to EGFR phosphorylation (Tyr1068) in H1975 (L858R, T790M) cells. In words: HTRF cellular EGFR phosphorylation. The note with it: H1975 and H1975 C797S vs A431, HTRF. It is filed as cell-based, human. The protocol: as §1
For test [5], the system named is H1975 C797S cells. In words: Adherent cell growth inhibition (CyQUANT). It is filed as cell-based. The settings on record: Homo sapiens, NCI-H1975; replenishment of compound every 72 h; read-out: H1975/C797S EGFR GI50. The protocol: For adherent cell assays, each cell line was plated on day 0 in a 96-well plate at a density known to allow for exponential growth over 72 h. After 24 h, the compounds were diluted to the required concentrations in DMEM + 10% FBS media, maintaining a consistent final DMSO concentration of 0.1%. The cells were then incubated for 72 h at 37 °C with 5% CO2. Growth inhibition was then assessed using a CyQUANT Direct Cell Proliferation assay (Invitrogen Cat No. C35011) following the manufacturer’s instructions. Fluorescence intensity (ex/em 480/520 nm) values were acquired using a PHERAstar microplate reader reader (BMG Labtech) and values were expressed as a percentage of the average DMSO treated value.

For test [6], the system named is BaF3 EGFR del19/T790M/C775A cells. Description: Ba/F3 growth inhibition (CellTiter Glo). Type of test: cell-based, Murine. The settings on record: Mus musculus, BaF3, absence of IL-3, 72 h, read-out: dTC2: del19/C775A GI50. The protocol: (§2) Growth inhibition in Ba/F3 cell lines were assessed in a 384-well format by CellTiter Glo assay (Promega) using the manufacturer’s recommended protocol. Cells were seeded on the day of compound addition and assessed following 72 h incubation including a vehicle only control. Ba/F3 EGFR-WT cells required supplementation with EGF (100 ng/mL, ThermoFisher, Cat No. PHG0311).
In general terms: In ATP-based viability assays light output follows the ATP content of the culture.

Test [7] deals with BaF3 EGFR del19/T790M/C797S cells. In words: Ba/F3 growth inhibition (CellTiter Glo). It is filed as cell-based, Murine. The settings on record: Mus musculus, BaF3, absence of IL-3, 72 h, read-out: dTC: del19/C797S GI50. The protocol: as §2
Test [8] has as its system BaF3 EGFR L858R/T790M/C775A cells. In words: Ba/F3 growth inhibition (CellTiter Glo). Type of test: cell-based, Murine. The note with it: BaF3 C775A mutant lines vs L858R/T790M and L858R/T790M/C797S. How it is done:
as §2

Test [9] concerns BaF3 EGFR L858R/T790M/C797S cells. In words: Ba/F3 growth inhibition (CellTiter Glo). It is filed as cell-based, Murine. The note with it: BaF3, absence of IL-3, 72 h, read-out: LTC: L858R/T790M/C797S GI50. How it is done:
as §2

Test [10] has as its system L858R/T790M/C797S (TM-EGFR). The settings on record: published fragment; reference number not given; cited from earlier work.
Test [11] deals with BAF EGFR L858R/C797S cells. The note with it: BAF EGFR cell line; published compound, reference number not given; cited from earlier work.
Setting [12] is: TR-FRET, read-out: mLTC-EGFR IC50.
The mark [13] stands for this setting: TR-FRET, n > 3, read-out: mLTC-EGFR IC50.
Setting [14] is: TR-FRET, n > 3, read-out: mLTC-EGFR pIC50 ± std dev (converted).

Values joined by “and” are separate entries in the source; they are usually repeats but may differ in a detail not shown here. Identical values can stand only once. Like-named read-outs stand apart in the source and are kept apart here. A value given as a limit tells only on which side of the number the result lay.

As for `C#Cc1cc(-c2cnn3ccccc23)nc(Nc2ccccc2)n1` [Compound 2, 4-Ethynyl-N-phenyl-6-(pyrazolo[1,5-a]pyridin-3-yl)pyrimidin-2-amine], the IC50 was 22000 ± 11000 nM in [1] (setting [12]) and 20000 nM in test [1] (supplementary csv, read-out: TM pIC50 (converted)). Also, the “selectivity over the wild-type protein” value in test [1] (mLTC-EGFR vs WT-EGFR, TR-FRET) was 2 fold.
As for `C#Cc1cc(=O)n(-c2ccccc2)c2nc(Nc3ccc(N4CCOCC4)cc3OC)ncc12` [Compound 5, 5-Ethynyl-2-((2-methoxy-4-morpholinophenyl)amino)-8-phenylpyrido[2,3-d]pyrimidin-7(8H)-one], the IC50 in test [1] (setting [13]) is < 10 nM and 4.3 nM; in [1] (setting [14]), 3.98 nM.
`C#Cc1cc(=O)n(-c2ccccc2)c2nc(Nc3ccc(N4CCOCC4)cc3)ncc12` [Compound 6, 5-Ethynyl-2-((4-morpholinophenyl)amino)-8-phenylpyrido[2,3-d]pyrimidin-7(8H)-one]: the IC50 in [1] (setting [13]) was < 10 nM and 4.2 nM; in test [1] (setting [14]), 3.98 nM.
On to `C#Cc1cc(=O)n(-c2ccccc2)c2nc(Nc3ccc(N(C)CCN(C)C)cc3)ncc12` [Compound 7, 2-((4-((2-(Dimethylamino)ethyl)(methyl)amino)phenyl)amino)-5-ethynyl-8-phenylpyrido[2,3-d]pyrimidin-7(8H)-one], for which the IC50 was 240 ± 37 nM in test [2]; 190 ± 40 nM in test [3]; < 10 nM and 5.6 nM in test [1] (setting [13]); 5.01 nM in test [1] (setting [14]). The “margin to A431 (WT-EGFR), inhibition of EGFR phosphorylation” value in [4] is given as above 10 fold. Also, the GI50 in test [5] was 2100 ± 1100 nM; in test [6], 1500 ± 450 nM; in test [7] it was 52 ± 7 nM; in [9] it was below 100 nM; in test [9] (Mus musculus, Ba/F3 EGFR, 72 h), 86 ± 12 nM. Further, the “activity in C775A mutant cell lines” value in test [8] is “significant loss of activity”.
For `C#Cc1cc(=O)n(-c2ccccc2)c2nc(Nc3ccc(N4CCN(C)CC4)cc3OC)ncc12` [Compound 8, 5-Ethynyl-2-(2-methoxy-4-(4-methylpiperazine-1-ylphenyl)amino)-8-phenylpyrido[2,3-d]pyrimidin-7(8H)-one], the IC50 in test [1] (setting [13]) was < 10 nM and 9.1 nM; in test [1] (setting [14]) it was 10 nM.
Consider `C#Cc1cc(=O)n(-c2ccccc2)c2nc(Nc3ccc(N4CCN(C)CC4)cc3)ncc12` [Compound 9, 5-Ethynyl-2-((4-(4-methylpiperazin-1-yl)phenyl)amino)-8-phenylpyrido[2,3-d]pyrimidin-7(8H)-one], for which the IC50 was < 10 nM and 3.6 nM in test [1] (setting [13]); 3.98 nM in [1] (setting [14]).
For the molecule `C#Cc1cc(=O)n(-c2ccccc2)c2nc(Nc3ccc(N(C)C(=O)COC)cc3OC)ncc12` [Compound 10, N-(4-((5-Ethynyl-7-oxo-8-phenyl-7,8-dihydropyrido[2,3-d]pyrimidin-2-yl)amino)-3-methoxyphenyl)-2-methoxy-N-methylacetamide], the IC50 in test [1] (setting [13]) was 33 nM; in [1] (setting [14]), 31.6 nM.
In the case of `C#Cc1cc(=O)n(-c2ccccc2)c2nc(Nc3ccc(N(C)C(=O)CCOC)cc3OC)ncc12` [Compound 11, N-(4-((5-Ethynyl-7-oxo-8-phenyl-7,8-dihydropyrido[2,3-d]pyrimidin-2-yl)amino)-3-methoxyphenyl)-3-methoxy-N-methylpropanamide], the IC50 in test [1] (setting [13]) is 64 nM; in [1] (setting [14]), 63.1 nM.
Consider `C#Cc1cc(=O)n(-c2ccccc2)c2nc(Nc3ccc(N(C)C(=O)CN(C)C)cc3OC)ncc12` [Compound 12, 2-(Dimethylamino)-N-(4-((5-ethynyl-7-oxo-8-phenyl-7,8-dihydropyrido[2,3-d]pyrimidin-2-yl)amino)-3-methoxyphenyl)-N-methylacetamide], for which the IC50 was 19 nM in test [1] (setting [13]) and 20 nM in [1] (setting [14]).
As for `C=CC(=O)Nc1cccc(-c2nn(C)c3ncnc(N)c23)c1` [Compound S1], the IC50 in test [1] (setting [14]) and in [1] (setting [12]) was above 100000 nM throughout.
On to `C#CC(=O)Nc1cccc(-c2nn(C)c3ncnc(N)c23)c1` [Compound S2], for which the IC50 in test [1] (setting [14]) and in test [1] (setting [12]) was 20000 nM throughout.
As for `C=CC(=O)NCc1cccc(-c2nn(C)c3ncnc(N)c23)c1` [Compound S3], the IC50 in test [1] (setting [14]) and in test [1] (setting [12]) was above 100000 nM throughout.
For `C=CC(=O)NCc1cc(=O)n(-c2ccccc2)c2nc(Nc3ccccc3OC)ncc12` [Compound S4], the IC50 in test [1] (setting [14]) and in test [1] (setting [12]) was above 100000 nM throughout.
`C#CC(=O)NCc1cc(=O)n(-c2ccccc2)c2nc(Nc3ccccc3OC)ncc12` [Compound S5]: the IC50 in [1] (setting [14]) and in [1] (setting [12]) was above 100000 nM throughout.
`C=CC(=O)NCCOc1cccc(-c2nn(C)c3ncnc(N)c23)c1` [Compound S6]: the IC50 in test [1] (setting [14]) and in [1] (setting [12]) was above 100000 nM each time.
For the molecule `C=CC(=O)NCCOc1ccc(-c2nn(C)c3ncnc(N)c23)cc1` [Compound S7], the IC50 in test [1] (setting [14]) and in test [1] (setting [12]) was above 100000 nM in each case.
Regarding `C=CC(=O)Nc1ccccc1Oc1ccc(-c2nn(C)c3ncnc(N)c23)cc1` [Compound S8], the IC50 in test [1] (setting [14]) and in [1] (setting [12]) was above 100000 nM each time.
As for `C#CC(=O)Nc1ccccc1Oc1ccc(-c2nn(C)c3ncnc(N)c23)cc1` [Compound S9], the IC50 in test [1] (setting [14]) is 25100 nM; in test [1] (setting [12]), 23000 nM.
As for `COc1ccccc1Nc1ncc2ccc(=O)n(-c3ccccc3)c2n1` [Compound S10], the IC50 in test [1] (setting [14]) was 7940 nM; in test [1] (setting [12]), 7800 nM.
Take `C=Cc1cc(=O)n(-c2ccccc2)c2nc(Nc3ccccc3OC)ncc12` [Compound S11]: the IC50 in test [1] (setting [14]) was 10000 nM; in test [1] (setting [12]) it was 11000 nM.
The corresponding values for `CC#Cc1cc(=O)n(-c2ccccc2)c2nc(Nc3ccccc3OC)ncc12` [Compound S12] are above 100000 nM and above 100000 nM.
In the case of `C=CC(=O)Nc1cc(-c2cn(C)c3ccccc23)ncn1` [Lead C775-binding fragment], the IC50 in test [10] is 900 nM.
In the case of `C=CC(=O)Nc1cc(C(=O)Nc2nc3cccc(Cl)c3n2[C@@H]2CCCCN(C(=O)C=C)C2)cs1` [dual C775–C797 inhibitor], the GI50 in test [11] is 520 nM.
